Publication PMC4336329 (PLoS ONE, 2015)
Among all 310,000 compounds or so, about 14,000 (4.5%) showed an effect of 50% or more. Effects have a minus sign here. The list shows a part of the results.

biological target: human ether-à-go-go-related gene (hERG) potassium channel (human, UniProt Q12809); experiment: primary screen, population patch clamp on CHO cells stably expressing hERG
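Note: peak tail current of the secondary pulse compared with the same well before compound.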

human ether-à-go-go-related gene (hERG) potassium channel, sequence (Q12809 whole entry, looked up): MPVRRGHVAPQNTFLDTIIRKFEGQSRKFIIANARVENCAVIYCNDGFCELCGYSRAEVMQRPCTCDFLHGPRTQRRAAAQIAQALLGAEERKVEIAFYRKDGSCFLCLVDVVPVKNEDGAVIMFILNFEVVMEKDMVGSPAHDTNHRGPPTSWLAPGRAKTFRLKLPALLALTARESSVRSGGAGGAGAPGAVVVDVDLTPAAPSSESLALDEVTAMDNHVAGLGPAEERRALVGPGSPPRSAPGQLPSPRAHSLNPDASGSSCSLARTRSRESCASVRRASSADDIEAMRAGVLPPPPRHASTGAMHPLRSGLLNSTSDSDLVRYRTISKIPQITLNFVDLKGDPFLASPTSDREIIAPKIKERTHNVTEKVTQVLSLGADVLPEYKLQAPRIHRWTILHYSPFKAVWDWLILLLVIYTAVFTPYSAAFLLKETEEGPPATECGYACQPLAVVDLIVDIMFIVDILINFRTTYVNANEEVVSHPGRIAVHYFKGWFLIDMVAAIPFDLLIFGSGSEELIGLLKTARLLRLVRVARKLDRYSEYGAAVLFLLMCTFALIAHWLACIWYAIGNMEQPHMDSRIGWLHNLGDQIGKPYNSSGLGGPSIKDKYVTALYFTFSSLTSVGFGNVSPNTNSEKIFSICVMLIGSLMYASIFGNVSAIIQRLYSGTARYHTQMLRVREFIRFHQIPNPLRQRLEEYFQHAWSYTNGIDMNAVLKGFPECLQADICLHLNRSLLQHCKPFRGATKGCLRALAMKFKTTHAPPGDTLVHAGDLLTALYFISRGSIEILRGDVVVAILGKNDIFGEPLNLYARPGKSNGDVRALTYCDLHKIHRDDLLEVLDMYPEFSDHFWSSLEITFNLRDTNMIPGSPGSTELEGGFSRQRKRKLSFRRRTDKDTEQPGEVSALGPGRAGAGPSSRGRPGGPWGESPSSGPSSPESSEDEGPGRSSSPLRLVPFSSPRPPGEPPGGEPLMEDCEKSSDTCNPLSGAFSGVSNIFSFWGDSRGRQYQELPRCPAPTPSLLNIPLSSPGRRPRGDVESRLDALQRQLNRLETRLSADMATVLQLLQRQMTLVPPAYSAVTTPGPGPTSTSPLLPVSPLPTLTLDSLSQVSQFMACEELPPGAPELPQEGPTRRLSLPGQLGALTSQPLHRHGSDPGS

Row | SMILES | hERG current change (%, negative = inhibition) at 10uM [%]
1 | Cc1cccc(S(=O)(=O)c2c(N)n(-c3ccccc3)c3nc4ccccc4nc23)c1 | 7.14
2 | CCCn1c(NCc2ccc(C)o2)nc2ccccc21 | -24.1
3 | Cc1ccc(-c2nc(N)n(S(=O)(=O)c3ccc(C)cc3)n2)cc1 | 16
4 | Cc1cc(C)cc(N(C(=O)CNC(=O)c2ccco2)C(C(=O)NC2CCCC2)c2ccncc2)c1 (stereo not shown) | -11.6
5 | CCN(CC)CCNC1=CC(=O)OC12CCCCC2 | 9.93
6 | CC(C)C(=O)c1cn(CC(=O)NCC2CCCO2)c2ccccc12 (stereo not shown) | 9.59
7 | O=C(COC(=O)Cc1ccccc1)NCCNC(=O)COC(=O)Cc1ccccc1 | 1.43
8 | CC(C)OCCCNC(=O)C1CCC(CNS(=O)(=O)c2ccccc2)CC1 (stereo not shown) | -7.62
9 | COc1cccc(CN2CCSCC2)c1OC | 14.4
10 | O=C1Nc2ccccc2/C1=C/c1ccccc1Cl | 7.15
11 | Cc1ccc(NC(=O)CCC(=O)O)cc1F | -2.25
12 | COc1cc2c(cc1OC)C(c1ccc(C(F)(F)F)cc1)CC(=O)N2 (stereo not shown) | 3.75
13 | Cc1ccc(NC(=O)Nc2ccnc(-c3cccnc3)n2)cc1 | -23.4
14 | Cc1ccc(C(=O)OCC(=O)NNC(=O)COc2ccc(Cl)cc2)c(O)c1 | -2.08
15 | COc1cccc(-c2cccc(NC(=O)C3CCN(C4CCC4)CC3)c2)c1 | -51.7
16 | CCOC(=O)Cc1nnc(NC(=O)CSc2nnc3c4ccccc4n(C)c3n2)s1 | -40.9
17 | CCOC(=O)[C@@H]1[C@H]2COc3ccc(Br)cc3[C@H]2N2C(=O)N(c3ccc(C)cc3)C(=O)[C@]12C | -4.14
18 | N#CNC(=Nc1cccc(F)c1)SCc1cccc(F)c1 | 10.2
19 | O=C(Nc1nc2ccc(S(=O)(=O)N3CCCCC3)cc2s1)C1CCCO1 (stereo not shown) | -12.5
20 | COc1ccc(CCNC(=O)c2nn(C)c3c2CS(=O)(=O)c2ccccc2-3)cc1OC | 12.6
21 | CCCCNc1c([N+](=O)[O-])ncn1C | -6.98
22 | CC[n+]1ccccc1/C=C1\Sc2ccc(C)cc2N1C.[I-] | -62.5

Row | SMILES | hERG current change (%, negative = inhibition) at 10uM [%]
23 | CCOC(=O)c1c(-c2ccc(C)cc2)cn2ccccc12 | 2.58
24 | COc1ccccc1NC(=O)Nc1ccc(N2CCOCC2)cc1 | 23.8
25 | Cc1noc(C)c1S(=O)(=O)N1CCN(S(=O)(=O)c2ccccc2C#N)CC1 | 21.1
26 | CCN(CC(=O)Nc1ccc2c(c1)OCCO2)C(=O)COc1cc(C)ccc1Cl | 1.86
27 | COc1cc2cc(CN(CCCN3CCOCC3)C(=O)Nc3ccccc3F)c(=O)[nH]c2cc1OC | 34.6
28 | O=C(c1ccccc1Cl)N1CCN(S(=O)(=O)N2CCCCC2)CC1 | 8.16
29 | O=S(=O)(NCCOCCNS(=O)(=O)c1ccccc1)c1ccccc1 | 14.7
30 | CC(=O)CC(c1ccccc1)S(=O)(=O)c1ccc(C)cc1 (stereo not shown) | 5.81
31 | O=C(CCCc1ccccc1)NCCc1cnc[nH]1 | 21.9
32 | Clc1nc2c(-c3ccccc3)nnn2c2ccccc12 | -3.03
33 | Cc1cccc(OCCCSc2nc3ccc(C)cc3[nH]2)c1 | 16.8
34 | Cc1ccc(C(=O)N/N=C\c2ccc[nH]2)cc1[N+](=O)[O-] | 8.33
35 | COc1ccc(C(C#N)C2(C)OCCO2)cc1OC (stereo not shown) | -4.08
36 | CN(C)C(CNC(=S)Nc1ccccc1)c1cccnc1 (stereo not shown) | 10.7
37 | CC(CC(=O)Nc1cc(S(=O)(=O)N2CCOCC2)ccc1OCC(F)(F)F)c1ccccc1 (stereo not shown) | -50.2
38 | Cc1ccc(C(O)CN2C3=NCCCN3c3ccccc32)cc1.Cl (stereo not shown) | -67.4
39 | Cn1nc([N+](=O)[O-])nc1Oc1ccc2ccccc2c1 | -4.26
40 | O=C(COC(=O)CCN1C(=O)c2cccc([N+](=O)[O-])c2C1=O)NC1CCS(=O)(=O)C1 (stereo not shown) | 16.5
41 | Cc1ccccc1NC(=S)NC(=O)Cc1ccc(Cl)cc1 | 5.08
42 | COc1ccc(NC(=O)c2ccc(COCC(F)(F)F)cc2)cc1OC | 6.9
43 | CN(CC(=O)NCCC1=CCCCC1)S(=O)(=O)c1ccc2c(c1)c(=O)n(C)c(=O)n2C | -64.9
